Data taken from ChEMBL document CHEMBL4888484, “Replenishing the malaria drug discovery pipeline: Screening and hit evaluation of the MMV Hit Generation Library 1 (HGL1) against asexual blood stage Plasmodium falciparum ,using a nano luciferase reporter read-out” (2022).
About 540 (0.36%) of roughly 150,000 compounds showed an effect of 50% or more. The list shows a part of the results.

Each molecule was assayed on Plasmodium falciparum (assay: Primary screen in NF54 nanoGlo assay, in single point, at 2uM, 72h; a lower Z score goes with more inhibition). Details: timepoint 72 hour.
Type: functional, Erythrocyte

| Compound | % Inhibition | Z score |
| --- | --- | --- |
| Cc1cnc(C(=O)N2CC[C@@]3(CCCN(CC4CCC4)C3=O)C2)cn1 | -7% | 0.67 |
| Cn1cc(Cl)cc1C(=O)N1C[C@@H]2CCC[C@H](C1)C(=O)N2 | -3% | 0.53 |
| CCc1n[nH]c(=O)c2cc(S(=O)(=O)Nc3ccc(C)cc3)cn12 | 3% | -0.39 |
| CCN(C(=O)Cn1c(=O)c(C#N)c2n(c1=O)CCC2)c1ccccc1C | -18% | 3.42 |
| Cn1c(CN2CCCC2)nnc1C1CCN(C(=O)c2ccc(O)cc2)CC1 | -9% | 1.31 |
| CCC1(CC)CN(C(=O)[C@H]2CCN(CCOC)C2)CCO1 | -10% | 2.04 |
| COc1ccc(C(Nc2nc3ccccc3o2)[C@H]2C[C@H](O)C2)cn1 (stereo not given in full) | 2% | -0.33 |
| CCOC(=O)c1n[nH]cc1[C@@H]1CC(=O)Nc2c1cnn2Cc1cccnc1 | 0% | -0.07 |
| CCN(Cc1cnn(C)c1)S(=O)(=O)c1cc2c(cc1Cl)OCCO2 | -6% | 0.69 |
| O=C1[C@H]2Cc3ccccc3CN2C(=O)CN1CCc1ccccc1 | 3% | -0.56 |
| CCN1C(=O)C[C@H](C(=O)NCc2ccc(C)o2)[C@H]1c1nccn1CC | -4% | 0.78 |
| CC[C@H](O)Cn1nc(CCc2ccccc2)nc1CNC(C)=O | 7% | -0.93 |
| CNC(=O)c1ccc(NC(=O)CCOC(C)C)c(Cl)c1 | -1% | 0.1 |
| Cn1nnnc1CN1CCCN(c2cccc(F)c2F)CC1 | -2% | 0.35 |
| CCc1ccnc(CNC(=O)N2CC(O)CC2c2cccc(F)c2)c1 (stereo not given) | 1% | -0.14 |
| CC(C)NC(=O)CNC(=O)C(=O)Nc1ccccc1O | 3% | -0.4 |
| CCc1nc(C)c(CN2CCC(Oc3cc(OC)ccc3C(=O)NCCOC)CC2)[nH]1 | -14% | 2.68 |
| CCCN1C(=O)[C@@H]2C(C(=O)Nc3cccc(Cl)c3)[C@@H]3C=C[C@]2(O3)C1C(=O)NC1CCCC(C)C1C (stereo not given in full) | -14% | 2.21 |
| CS(=O)(=O)N1C[C@H]2CCN(Cc3c(F)cccc3F)C[C@H]21 | -12% | 1.63 |
| Cc1cccc(N2CCCC2CN2CCCC2CO)n1 (stereo not given) | -16% | 2.09 |
| Cc1c(Br)cccc1CS(=O)(=O)CCC#N | 6% | -0.64 |
| COc1cccc(CO[C@H]2CN(CC(C)C)C(=O)CN(C(=O)c3cncs3)C2)c1 | -10% | 1.32 |

| Compound | % Inhibition | Z score |
| --- | --- | --- |
| COc1c(C(=O)N[C@H](c2c(C)nn(C)c2C)C(F)(F)F)cnn1C | -11% | 1.6 |
| Cn1c(=O)n(C)c2cc(N3CCCC3)c(NC(=O)NCCc3ccccc3)cc21 | -12% | 2.4 |
| COCCC(C)(C)C(=O)Nc1ncc(Cl)s1 | -5% | 0.71 |
| CC[C@](C)(CO)CNC(=O)c1ccc(C)c(O)c1 | -6% | 0.65 |
| C[C@H](NCC(=O)Nc1cccc(Br)c1)c1ccc(C(F)F)nc1 | -10% | 1.56 |
| O=C(NCCc1cnc(O)nc1)[C@@H]1Cc2ccccc21 | -1% | 0.21 |
| CCCCS(=O)(=O)NCCNc1ccc(C)nn1 | -18% | 3.58 |
| COc1cccc(C(=O)N2CCN(C(=O)c3cc(C)c(C)[nH]c3=O)CC2)c1 | 8% | -1.16 |
| CN(C[C@H]1COCCO1)C(=O)c1ccc(CO)o1 | 2% | -0.38 |
| CCc1nc(C)nc(N2CCN(C[C@@H](O)Cc3ccccc3)CC2)c1Cc1ccc(Cl)cc1 | -11% | 1.61 |
| CNS(=O)(=O)CCNC(=O)Nc1ccc2c(cnn2C)c1 | -8% | 1.54 |
| O=C(Nc1ccccc1F)N1CCC2(CC1)C[C@@H](CCOCC1CC1)CCO2 | -8% | 1.58 |
| CC(C)(CN1CCCCCC1)NC(=O)c1ccc(CO)o1 | 2% | -0.37 |
| Cc1ccc(CNC(=O)N2CC(O)(C(F)(F)F)C2)nc1 | 4% | -0.7 |
| CCOc1ncccc1-c1ccc(NC)nn1 | -2% | 0.39 |
| CCOC(=O)C1CCN(Cn2nc(NC3CCCCC3)sc2=S)CC1 | -25% | 3.19 |
| CN(C)c1cc(C(=O)Nc2nncs2)ccn1 | -4% | 0.55 |
| CCCc1nc(C)c(CNc2ccc(C(N)=O)c(F)c2)o1 | -2% | 0.36 |
| Cc1nc2ncccn2c1C(=O)N[C@H]1CCN(Cc2ccccc2)C1 | -8% | 1.47 |
| CC(C)(C)NC(=O)CN1CCC(CNC(=O)c2ccsc2)CC1 | 0% | 0 |
| NC(=O)C[C@@H]1N[C@]2(C(=O)Nc3ccccc32)[C@@H]2C(=O)N(c3ccc(Cl)cc3)C(=O)[C@H]12 | -8% | 0.68 |
| Cc1ccccc1CCNC(=O)N(Cc1cccnc1)C1CCN(C)CC1 | -3% | 0.61 |

| Compound | % Inhibition | Z score |
| --- | --- | --- |
| COCC[C@@H](CN1CCC=C(F)C1)NC(=O)OC(C)(C)C | -7% | 0.73 |
| CC1CCN(c2nc(N3CCCCC3)nc3c2CN(C(=O)COc2ccccc2)CC3)CC1 | -12% | 1.18 |
| COc1csc(C(=O)Nc2ccnn2Cc2ccsc2)c1 | -9% | 0.79 |
| CCCC(C(=O)NCc1ccccc1CN1CCCC1CO)c1ccccn1 (stereo not given) | -7% | 1.01 |
| COCCN1C[C@@H](CNC(=O)c2cnn3ccn(C)c23)CC1=O | 8% | -1.11 |
| CC1CC(NCc2cc3ccccc3n2C)CCN1C (stereo not given) | 16% | -2.04 |
| Cc1cc(F)cc(C(=O)NCc2n[nH]c(=O)[nH]2)c1 | -8% | 0.84 |
| O=C(NCCc1cnn[nH]1)c1ccc(-c2ncc[nH]2)s1 | 2% | -0.3 |
| COCC(=O)NC[C@H]1CN(C(=O)c2cccnc2O)CC12CCCCC2 | -3% | 0.54 |
| CC(C)CNC(=O)N1CC2(CCCCC2)C[C@@H]1COCc1ccccc1 | -8% | 1.37 |
| C/C=C(\C)CN1C[C@H](NC(=O)CCN2CCCCC2=O)[C@@H](C2CC2)C1 | 0% | 0.06 |
| CN1C[C@@]2(C)CN(C(=O)c3cc4ccccc4[nH]3)C[C@@](C)(C1)C2O (stereo not given in full) | -9% | 1.16 |
| CN(C)Cc1ccnc(NC(=O)Nc2cnn(C3CCC3)c2)c1 | -16% | 1.82 |
| Cc1cc(CN(C)C(=O)C#Cc2ccc3c(c2)OCO3)no1 | 3% | -0.31 |
| CCn1cc(Br)cc1C(=O)Nc1ccnn1C(C)C | 11% | -1.39 |
| COc1ccc(/C=C/CN(C)Cc2cc(C)[nH]n2)cc1 | -16% | 2.02 |
| COc1cccc(-c2nc(S(=O)(=O)c3ccc4c(c3)OCCO4)c(NCCCN3CCOCC3)o2)c1 | -11% | 1.4 |
| COCCN1C[C@@H](Cc2ccc(C(F)(F)F)cn2)CC1=O | -9% | 1.62 |
| Cc1ccc2c(c1)N(Cc1cnn([C@H]3CCS(=O)(=O)C3)c1)CC2 | 3% | -0.46 |
| Cc1cc(C)cc(Nc2c3c4c(cccc4n(C)c2=O)C(=O)c2ccccc2-3)c1 | 3% | -0.65 |
| C[C@@H](CN(C)C(=O)c1cccc(-c2ccc(F)cn2)c1)N1CCOCC1 | -11% | 1.46 |
| Cn1cnc2c(C(=O)N3Cc4ncccc4N4CCC[C@H]4C3)ccnc21 | -15% | 1.65 |

| Compound | % Inhibition | Z score |
| --- | --- | --- |
| Cc1oc(-c2ccccc2Cl)nc1CN(C)C1CCOCC1 | -7% | 1.41 |
| O=C(NCCc1ccccc1F)C(=O)NCc1ccco1 | -19% | 2.4 |
| CC(C)n1cc(C(=O)N(C)Cc2nccn2C)cn1 | 3% | -0.49 |
| CCN1CCN(C(=O)c2cn3c(n2)CC[C@H](c2cc(C(F)(F)F)cc(C(F)(F)F)c2)C3)CC1 | 4% | -0.56 |
| Cc1n[nH]c(=O)nc1NCCc1csc(-c2ccccc2)n1 | -4% | 0.52 |
| O=C1CCCN1c1ccc(S(=O)(=O)N2CCC(c3nc4cc(Cl)ccc4o3)CC2)cc1 | -8% | 1.61 |
| COc1ccc(CCC(=O)N2CCCN(C(=O)CC(C)C)CC2)cc1 | -7% | 0.86 |
| CN(Cc1cc(C2CC2)on1)C(=O)NCc1cccc(Cl)c1F | -5% | 0.66 |
| Cc1nc2c(c(N3CCN(CCOCCO)CC3)n1)CNC2 | -10% | 1.79 |
| COc1ccc(N2CCN(C(=O)C(C)C)[C@@H](C)C2=O)cc1 | -7% | 1.21 |
| CCc1cc(N2CCc3[nH]nc(C(=O)N(C)C)c3C2)n2nccc2n1 | -2% | 0.34 |
| CCCn1cnnc1CN(C)Cc1nc(C)c(C)s1 | -10% | 1.73 |
| COC[C@@H]1CN(Cc2ccccc2F)C[C@H]1c1nc(C2CC2)no1 | -2% | 0.29 |
| O=C(NCc1ccc(Cl)cc1)N1C2CCC1CC(Oc1cccnc1)C2 (stereo not given) | -16% | 1.85 |
| Cc1c(C)n(C2CCCC2)c2ncnc(N3CCC[C@H](C(N)=O)C3)c12 | -15% | 2.16 |
| C[C@@H](c1nc(C(C)(C)C)no1)N1CCN(C(c2ccccc2)c2ccccc2)CC1 | -18% | 1.54 |
| Cc1cnc(C)c(N2C[C@@H]3OC(=O)N(CCc4ccc(F)cc4)[C@@H]3C2)n1 | -3% | 0.52 |
| CCOC(=O)c1cn(Cc2ccc(C)cc2)c2nc(C)ccc2c1=O | -8% | 1 |
| Cc1cc(CON=C(N)c2ccc(CN3CCOCC3)cc2)on1 | -7% | 0.74 |
